Assay results as given in PubChem BioAssay AID488969 (Vanderbilt High Throughput Screening Facility, 2010).
The full ranking holds about 110,000 compounds; the median of “z-score” is about -0.1, and the highest 2% start at about 2. Some of the results follow.

What follows are compounds tested against Metabotropic glutamate receptor 8 (Rattus norvegicus) (UniProt P70579) (assay: mGluR8 Gi/Go-coupled signaling modulation – cell-based, rat, thallium flux, HTS, primary screen (AID 488969)). Settings: HEK293 rat mGluR8, GIRK (G protein-gated inwardly rectifying potassium channel) thallium flux, FluoZin2; at 10 µM; stronger effect = higher value; submaximal glutamate (EC20) added with thallium.
Sequence of UniProt P70579 (P70579 whole entry, looked up): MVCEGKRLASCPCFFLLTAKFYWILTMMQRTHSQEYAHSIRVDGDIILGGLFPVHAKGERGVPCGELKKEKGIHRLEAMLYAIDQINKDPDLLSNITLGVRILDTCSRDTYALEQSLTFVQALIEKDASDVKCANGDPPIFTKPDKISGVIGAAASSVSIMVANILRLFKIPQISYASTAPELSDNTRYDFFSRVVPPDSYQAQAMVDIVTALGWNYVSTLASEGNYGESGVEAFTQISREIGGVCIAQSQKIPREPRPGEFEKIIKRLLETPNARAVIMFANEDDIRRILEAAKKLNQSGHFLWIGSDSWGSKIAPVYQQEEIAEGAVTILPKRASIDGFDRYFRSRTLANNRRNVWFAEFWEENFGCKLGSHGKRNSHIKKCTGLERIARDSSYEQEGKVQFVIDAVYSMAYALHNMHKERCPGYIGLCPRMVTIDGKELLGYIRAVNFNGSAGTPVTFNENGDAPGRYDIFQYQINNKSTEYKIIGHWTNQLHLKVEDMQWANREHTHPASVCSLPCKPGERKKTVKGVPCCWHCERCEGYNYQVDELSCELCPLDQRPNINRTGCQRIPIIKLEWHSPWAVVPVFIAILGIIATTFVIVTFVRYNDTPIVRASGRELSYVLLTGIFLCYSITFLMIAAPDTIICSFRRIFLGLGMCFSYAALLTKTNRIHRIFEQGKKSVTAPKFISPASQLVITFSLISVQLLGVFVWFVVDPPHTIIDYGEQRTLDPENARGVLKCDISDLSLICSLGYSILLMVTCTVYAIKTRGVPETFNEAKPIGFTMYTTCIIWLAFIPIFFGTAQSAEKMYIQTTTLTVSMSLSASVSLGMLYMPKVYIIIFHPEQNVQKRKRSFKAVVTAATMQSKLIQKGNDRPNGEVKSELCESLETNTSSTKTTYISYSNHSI

SMILES	z-score
CCOC(=O)c1cc2c(C)n(-c3ccc(OCC)cc3)c(C)c2ccc1=O	0.0617
COC(=O)C1=NN(C(C)=O)C2(CC(=O)N(c3cc(C)cc(C)c3)C2=O)C1 (configuration not stated)	-0.25
C=CCOC(=O)CCCC(=O)NC1CCCCC1	-0.153
O=[N+]([O-])c1ccc(N2CCN(CCOc3nonc3-c3ccccc3)CC2)c(Cl)c1	-0.143
Cc1cc(C)cc(OCCCOc2cccc3cccnc23)c1	-0.197
CC1=CC(C)(C)N(C(=O)CSc2nnc(-c3ccccc3)o2)c2ccc(C)cc21	0.125
O=C(Nc1ccc(Br)cc1F)c1ccncc1	-0.185
COc1cc(N(C(=O)Cc2cccs2)C(C(=O)NC2CCCCC2)c2cccc(OC)c2OC)ccc1-n1cnnn1 (configuration not stated)	-0.302
COc1ccc(S(=O)(=O)N(C)c2ccc(C(=O)NCC3CCCO3)cc2)cc1 (configuration not stated)	0.243
CCOC(=O)N1CCN(C(=O)c2cccc(NC(=O)c3ccco3)c2)CC1	-0.473
COc1ccc(CNC(=O)c2noc(C(C)C)c2[N+](=O)[O-])cc1	-0.126
CCOc1ccc(C2CC(=O)n3nc(C45CC6CC(CC(C6)C4)C5)nc3S2)cc1OC (configuration not stated)	-0.36
O=C(CNC(=S)NC(=O)c1ccc(Cl)cc1)c1ccccc1	1.87
O=c1[nH]nc(Cc2ccc3ccccc3n2)c2ccccc12	-0.226
O=C(O)c1ccc2c(c1)[C@@H]1C=CC[C@@H]1[C@H](c1ccccn1)N2	-0.691
N#Cc1c(NC(=O)COC(=O)C2CC3C=CC2C3)oc(-c2ccccc2)c1-c1ccccc1 (configuration not stated)	-0.794
CC(C)c1ccc(N2C(=O)CC(Sc3nc4ccccc4o3)C2=O)cc1 (configuration not stated)	0.142
C=CCNC(=O)c1ccc(C(=O)c2ccccc2)cc1	0.141
O=C(CSc1nnc(-c2cccnc2)n1-c1ccccc1)Nc1ccc2c(c1)OCO2	0.278
Cc1c(C(=O)NCCN2CCOCC2)oc2ccccc12	-0.335
CCCC(C(=O)OCC)P(=O)(c1ccccc1)c1ccccc1 (configuration not stated)	-0.0107
O=C(NCCN1CCOCC1)c1ccc(Cl)cc1[N+](=O)[O-]	0.289
CCCCn1nnnc1NCc1ccc(OC)c(OC)c1OC	-0.395

SMILES	z-score
Cc1cccc(-c2noc(CN(C(=O)c3ccc4c(c3)OCO4)C(C)C)n2)c1	-0.23
Nc1nnc(Cc2ccc(Cl)c(Cl)c2)s1	-0.0601
CNc1cnn(-c2ccc(C)cc2)c(=O)c1Cl	-0.25
c1ccc(CC2CCN(c3nc(N4CCOCC4)nc(N4CCOCC4)n3)CC2)cc1	-0.0645
CC(SCc1ccccc1)C(=O)N/N=C/c1ccc(OCC(=O)NCc2ccco2)cc1 (configuration not stated)	-0.532
Cc1cc(=O)n(C)c(=O)n1CCCCOc1cccc([N+](=O)[O-])c1	-0.0651
Cc1ccc(-c2ccc(CCC(=O)O)n2-c2cccc(O)c2)cc1	-0.426
CCNC(=O)c1cc2c(=O)n3cccc(C)c3nc2n(CCc2ccccc2)c1=N	0.25
O=C(NCc1cn(-c2ccccc2)nc1-c1ccccc1)c1ccc([N+](=O)[O-])cc1	-0.0499
Nc1c(C(=O)OCC2CCCO2)c2nc3ccccc3nc2n1-c1ccc2c(c1)OCCO2 (configuration not stated)	-2.73
O=C(NCc1ccc(Cl)cc1)C1C2C=CC3(CN(Cc4cccnc4)C(=O)C13)O2 (configuration not stated)	0.82
CCOC(=O)C1C(=O)CC(C)(O)C(C(=O)OCC)C1c1cccs1 (configuration not stated)	0.0345
O=C1C2C3C=CC([C@@H]2C(=O)N1C1CC1)[C@H]1C(=O)N(C2CC2)C(=O)C31 (some centres not stated)	-0.0443
CN(C(=O)c1ccno1)c1nnc(-c2cccnc2)s1	0.629
CC(=O)c1ccc(N2CCN(C(=S)Nc3ccccc3)CC2)cc1	-0.0362
Cc1ccc(C(=O)NC(=S)NNC(=O)c2ccccc2[N+](=O)[O-])cc1	0.414
Cc1cc(Br)ccc1OCCn1ccnc1	-0.0572
CCOC(=O)C1=C(C)NC2=C(C(=O)CCC2)C1c1cn(Cc2ccc(Cl)cc2Cl)nc1-c1ccccc1 (configuration not stated)	-0.00364
O=c1c2ccccc2nc(-c2ccoc2)n1CCc1ccccc1	0.134
COc1ccc(/C=N/NC(=O)c2ccco2)cc1Cn1nc(C)cc1C	-0.327
CC(C)c1nc(SCC(=O)Nc2ccc(N3CCOCC3)cc2)c2ccccc2n1	0.22
Cc1ccc(C(=O)Nc2nc3ccccc3n3nnnc23)cc1	-0.879
CCOc1ccc(C(=O)c2nc3c(n2O)CCCCC3)cc1	-0.438

SMILES	z-score
O=C(NCc1ccco1)C(c1ccco1)N(Cc1cccs1)C(=O)Cn1nnc2ccccc21 (configuration not stated)	-0.351
Cc1cc(C)cc(NC(=O)c2cc(S(=O)(=O)NCc3ccco3)ccc2F)c1	0.0645
Cc1sc(N/N=C/c2cccnc2)nc1-c1ccc(Cl)cc1	-0.0424
COCCNC(=O)CSc1nc2ccccc2c(=O)n1CCCC(=O)NCc1ccccc1	-0.969
CC(C)Cc1nnc(NC(=O)CCC(=O)NC2CCCc3ccccc32)s1 (configuration not stated)	0.13
CCOC(=O)COc1ccc(S(=O)(=O)NCc2ccco2)cc1	0.341
O=C(Nc1ccc(N2CCCC2)cc1)c1ccccc1F	-0.21
COc1ccc([N+](=O)[O-])cc1COc1cc(C)cc2oc(=O)cc(-c3ccccc3)c12	0.564
CCOC(=O)C1=C(C)N(C)C(=S)NC1c1ccccc1 (configuration not stated)	-0.134
COc1ccc(C(=S)N2CCN(C)CC2)cc1Br	-0.395
Cc1ccccc1N1C(=O)C(Oc2ccc(Cl)cc2)C1CNC(C)(C)C (configuration not stated)	0.46
Cc1cc(C)cc(-n2c(C)cc(/C=N/NC(=O)CSc3ncccn3)c2C)c1	-0.626
O=C(Nc1nnc(C2CC2)s1)c1cc(S(=O)(=O)N2CCN(c3ccccc3)CC2)ccc1Cl	-0.252
CC(C)[C@H](NS(=O)(=O)c1ccc2c(c1)OCCO2)C(=O)OCC(=O)Nc1ccccc1	-0.0541
Oc1c(Cl)cc(Cl)cc1C=Nc1ccccc1N1CCCC1	0.0524
CCn1c(SCC(=O)Nc2nc3ccccc3s2)nc2c(c1=O)SC(C)C2 (configuration not stated)	-1.37
COc1ccc(C2C(C(=O)NCCN3CCOCC3)c3ccccc3C(=O)N2C)cc1OC (configuration not stated)	0.256
Cc1cccc(NC(=O)c2cc3c([nH]c4ccccc43)c(C)n2)c1C	0.0463
CCOc1ccc2nc(NC(=O)c3ccc(OCC4CCCO4)cc3)sc2c1 (configuration not stated)	0.152
CCCCCC(/C=N/Nc1ccc(S(=O)(=O)N2CCOCC2)cc1[N+](=O)[O-])=C\c1ccccc1	-0.0356
O=C(OC1CCCCC1)c1ccc(NC(=O)c2ccco2)cc1	-1.15
